# Assay results from the supplement of paper PMC8728848.
# This is one part of the list.
# B1: ZG16p (Homo sapiens), O60844 (protein)
# chain: ARSSSYSGEYGGGGGKRFSHSGNQLDGPITALRVRVNTYYIVGLQVRYGKVWSDYVGGRNGDLEEIFLHPGESVIQVSGKYKWYLKKLLFVTDKGRYLSFGKDSGTSFNAVPLHPNTVLRFISGRSGSLIDAIGLHWDVYPSSCSRC
# Key:
# Experiment in all cases: glycan array binding signal (z-score within array); higher = stronger binding
# Conditions in all cases: glycan notation: IUPAC condensed, linker removed
# [1] = target: GlcNAc(b1-4)Fuc
# Outline: (§1)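 Glycan array binding is given as a within-array Z-score, which can be read as non-binding when negative. The arrays, 3228 of them, came from the Consortium for Functional Glycomics database and were retained only where the protein sequence was available. Z-scores were averaged across arrays of the same protein sequence at different concentrations or buffers and across linkers.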
# [2] = target: GlcNAc(b1-4)GlcNAc
# Outline: as §1
# [3] = target: GlcNAc(b1-4)GlcNAc(b1-4)GlcNAc
# Outline: as §1
# [4] = target: GlcNAc(b1-4)GlcNAc(b1-4)GlcNAc(b1-4)GlcNAc
# Outline: as §1
# [5] = target: GlcNAc(b1-4)GlcNAc(b1-4)GlcNAc(b1-4)GlcNAc(b1-4)GlcNAc
# Outline: as §1
# [6] = target: GlcNAc(b1-4)GlcNAc(b1-4)GlcNAc(b1-4)GlcNAc(b1-4)GlcNAc(b1-4)GlcNAc
# Outline: as §1
# [7] = target: GlcNAc(b1-4)GlcNAc(b1-4)GlcNAc(b1-4)GlcNAc(b1-4)GlcNAc(b1-4)GlcNAc(b1-4)GlcNAc
# Outline: as §1
# [8] = target: GlcNAc(b1-4)GlcNAc(b1-4)GlcNAc(b1-4)GlcNAc(b1-4)GlcNAc(b1-4)GlcNAc(b1-4)GlcNAc(b1-4)GlcNAc
# Outline: as §1
# [9] = target: HexA(a1-3)GalNAc4S(b1-4)GlcA(b1-3)GalNAc4S
# Outline: as §1
# [10] = target: HexA(a1-3)GalNAc4S(b1-4)GlcA(b1-3)GalNAc4S(b1-4)GlcA(b1-3)GalNAc4S(b1-4)GlcA(b1-3)GalNAc4S(b1-4)GlcA(b1-3)GalNAc4S(b1-4)GlcA(b1-3)GalNAc4S(b1-4)GlcA(b1-3)GalNAc4S
# Outline: as §1
# [11] = target: HexA(a1-3)GalNAc4S(b1-4)GlcA(b1-3)GalNAc4S(b1-4)GlcA(b1-3)GalNAc4S(b1-4)GlcA(b1-3)GalNAc4S(b1-4)GlcA(b1-3)GalNAc4S(b1-4)GlcA(b1-3)GalNAc4S(b1-4)GlcA(b1-3)GalNAc4S(b1-4)GlcA(b1-3)GalNAc4S
# Outline: as §1
# [12] = target: HexA(a1-3)GalNAc4S(b1-4)IdoA(a1-3)GalNAc4S
# Outline: as §1
# [13] = target: HexA(a1-3)GalNAc4S(b1-4)IdoA(a1-3)GalNAc4S(b1-4)IdoA(a1-3)GalNAc4S(b1-4)IdoA(a1-3)GalNAc4S(b1-4)IdoA(a1-3)GalNAc4S(b1-4)IdoA(a1-3)GalNAc4S(b1-4)IdoA(a1-3)GalNAc4S
# Outline: as §1
# [14] = target: HexA(a1-3)GalNAc4S(b1-4)IdoA(a1-3)GalNAc4S(b1-4)IdoA(a1-3)GalNAc4S(b1-4)IdoA(a1-3)GalNAc4S(b1-4)IdoA(a1-3)GalNAc4S(b1-4)IdoA(a1-3)GalNAc4S(b1-4)IdoA(a1-3)GalNAc4S(b1-4)IdoA(a1-3)GalNAc4S
# Outline: as §1
# [15] = target: HexA(a1-3)GalNAc6S(b1-4)GlcA(b1-3)GalNAc6S
# Outline: as §1
# [16] = target: HexA(a1-3)GalNAc6S(b1-4)GlcA(b1-3)GalNAc6S(b1-4)GlcA(b1-3)GalNAc6S(b1-4)GlcA(b1-3)GalNAc6S(b1-4)GlcA(b1-3)GalNAc6S(b1-4)GlcA(b1-3)GalNAc6S(b1-4)GlcA(b1-3)GalNAc6S
# Outline: as §1
# [17] = target: HexA(a1-3)GalNAc6S(b1-4)GlcA(b1-3)GalNAc6S(b1-4)GlcA(b1-3)GalNAc6S(b1-4)GlcA(b1-3)GalNAc6S(b1-4)GlcA(b1-3)GalNAc6S(b1-4)GlcA(b1-3)GalNAc6S(b1-4)GlcA(b1-3)GalNAc6S(b1-4)GlcA(b1-3)GalNAc6S
# Outline: as §1
# [18] = target: HexA2S(a1-4)GlcNS6S
# Outline: as §1
# [19] = target: HexA2S(a1-4)GlcNS6S(a1-4)IdoA2S(a1-4)GlcNS6S(a1-4)IdoA2S(a1-4)GlcNS6S(a1-4)IdoA2S(a1-4)GlcNS6S(a1-4)IdoA2S(a1-4)GlcNS6S(a1-4)IdoA2S(a1-4)GlcNS6S(a1-4)IdoA2S(a1-4)GlcNS6S(a1-4)IdoA2S(a1-4)GlcNS6S(a1-4)IdoA2S
# Outline: as §1
# [20] = target: HexA6S(a1-4)GlcNS6S(a1-4)IdoA2S(a1-4)GlcNS6S
# Outline: as §1
# [21] = target: HexA6S(a1-4)GlcNS6S(a1-4)IdoA2S(a1-4)GlcNS6S(a1-4)IdoA2S(a1-4)GlcNS6S(a1-4)IdoA2S(a1-4)GlcNS6S(a1-4)IdoA2S(a1-4)GlcNS6S(a1-4)IdoA2S(a1-4)GlcNS6S(a1-4)IdoA2S(a1-4)GlcNS6S
# Outline: as §1
# [22] = target: Kdn(a2-3)Gal(b1-3)GalNAc(b1-4)[Kdn(a2-3)]Gal(b1-4)Glc
# Outline: as §1
# [23] = target: Kdn(a2-3)Gal(b1-3)GlcNAc(b1-3)Gal(b1-4)Glc
# Outline: as §1
# [24] = target: Kdn(a2-3)Gal(b1-4)Glc
# Outline: as §1
# [25] = target: Kdn(a2-3)Gal(b1-4)[Fuc(a1-3)]GlcNAc(b1-3)Gal
# Outline: as §1
# [26] = target: Kdn(a2-3)Gal(b1-4)[Fuc(a1-3)]GlcNAc(b1-3)Gal(b1-4)Glc
# Outline: as §1
# [27] = target: Kdn(a2-3)Gal(b1-4)[Rha(a1-3)]GlcNAc(b1-3)Gal(b1-4)Glc
# Outline: as §1
# [28] = target: Kdn(a2-3)[GalNAc(b1-4)]Gal(b1-4)Glc
# Outline: as §1
# [29] = target: Kdn(a2-6)Gal
# Outline: as §1
# [30] = target: Man(a1-2)Man
# Outline: as §1
# [31] = target: Man(a1-2)Man(a1-2)Man(a1-3)[Man(a1-2)Man(a1-3)[Man(a1-2)Man(a1-6)]Man(a1-6)]Man(b1-4)GlcNAc(b1-4)GlcNAc
# Outline: as §1
# [32] = target: Man(a1-2)Man(a1-2)Man(a1-3)[Man(a1-2)Man(a1-6)[Man(a1-3)]Man(a1-6)]Man(b1-4)GlcNAc(b1-4)GlcNAc
# Outline: as §1
# [33] = target: Man(a1-2)Man(a1-2)Man(a1-3)[Man(a1-3)[Man(a1-6)]Man(a1-6)]Man(b1-4)GlcNAc(b1-4)GlcNAc
# Outline: as §1
# [34] = target: Man(a1-2)Man(a1-3)[Man(a1-2)Man(a1-6)[Man(a1-3)]Man(a1-6)]Man(b1-4)GlcNAc(b1-4)GlcNAc
# Outline: as §1
# [35] = target: Man(a1-2)Man(a1-3)[Man(a1-3)[Man(a1-6)]Man(a1-6)]Man(b1-4)GlcNAc(b1-4)GlcNAc
# Outline: as §1
# [36] = target: Man(a1-3)Man
# Outline: as §1
# [37] = target: Man(a1-3)Man(a1-6)[Man(a1-3)]Man(b1-4)GlcNAc(b1-4)GlcNAc
# Outline: as §1
# [38] = target: Man(a1-3)Man(b1-4)GlcNAc
# Outline: as §1
# [39] = target: Man(a1-3)[Man(a1-6)]Man
# Outline: as §1
# [40] = target: Man(a1-3)[Man(a1-6)]Man(a1-6)Man(b1-4)GlcNAc(b1-4)GlcNAc
# Outline: as §1
# [41] = target: Man(a1-3)[Man(a1-6)]Man(a1-6)[Man(a1-3)]Man
# Outline: as §1
# [42] = target: Man(a1-3)[Man(a1-6)]Man(a1-6)[Man(a1-3)]Man(b1-4)GlcNAc(b1-4)GlcNAc
# Outline: as §1
# [43] = target: Man(a1-3)[Man(a1-6)]Man(b1-4)GlcNAc(b1-4)GlcNAc
# Outline: as §1
# [44] = target: Man(a1-3)[Man(a1-6)]Man(b1-4)GlcNAc(b1-4)[Fuc(a1-6)]GlcNAc
# Outline: as §1
# [45] = target: Man(a1-6)Man
# Outline: as §1
binder,measurement,setting,value
B1,glycan array binding signal (z-score),[1],1.05
same,glycan array binding signal (z-score),[2],-0.328
same,glycan array binding signal (z-score),[3],-0.273
same,glycan array binding signal (z-score),[4],-0.23
same,glycan array binding signal (z-score),[5],-0.328
same,glycan array binding signal (z-score),[6],-0.328
same,glycan array binding signal (z-score),[7],-0.328
same,glycan array binding signal (z-score),[8],-0.323
same,glycan array binding signal (z-score),[9],-0.328
same,glycan array binding signal (z-score),[10],-0.328
same,glycan array binding signal (z-score),[11],-0.483
same,glycan array binding signal (z-score),[12],-0.305
same,glycan array binding signal (z-score),[13],-0.328
same,glycan array binding signal (z-score),[14],-0.003
same,glycan array binding signal (z-score),[15],-0.325
same,glycan array binding signal (z-score),[16],-0.328
same,glycan array binding signal (z-score),[17],-0.512
same,glycan array binding signal (z-score),[18],-0.011
same,glycan array binding signal (z-score),[19],0.297
same,glycan array binding signal (z-score),[20],-0.206
same,glycan array binding signal (z-score),[21],-0.017
same,glycan array binding signal (z-score),[22],-0.328
same,glycan array binding signal (z-score),[23],-0.328
same,glycan array binding signal (z-score),[24],-0.316
same,glycan array binding signal (z-score),[25],-0.328
same,glycan array binding signal (z-score),[26],-0.328
same,glycan array binding signal (z-score),[27],-0.328
same,glycan array binding signal (z-score),[28],-0.328
same,glycan array binding signal (z-score),[29],-0.328
same,glycan array binding signal (z-score),[30],0.488
same,glycan array binding signal (z-score),[31],-0.13
same,glycan array binding signal (z-score),[32],-0.309
same,glycan array binding signal (z-score),[33],0.487
same,glycan array binding signal (z-score),[34],-0.202
same,glycan array binding signal (z-score),[35],-0.213
same,glycan array binding signal (z-score),[36],2.78
same,glycan array binding signal (z-score),[37],0.158
same,glycan array binding signal (z-score),[38],2.31
same,glycan array binding signal (z-score),[39],1.31
same,glycan array binding signal (z-score),[40],-0.192
same,glycan array binding signal (z-score),[41],1.19
same,glycan array binding signal (z-score),[42],0.103
same,glycan array binding signal (z-score),[43],0.764
same,glycan array binding signal (z-score),[44],0.796
same,glycan array binding signal (z-score),[45],0.107
